Measured values reported in the supplement of paper PMC3334620.
The full ranking holds about 33,000 sequences; the median of “E-score (-0.5 to 0.5)” is about -0.016, and the highest 2% start at about 0.31. The list shows a part of the results.

target: Cst6 (UniProt P40535); assay: PBM E-score (8-mer binding enrichment) (E-score (-0.5 to 0.5)); higher = stronger / more preferred TF binding; most listed sequences are background and not binding sites; conditions: protein concentration: 200 nM; construct: GST-DNA-binding domain
Method in brief: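 Bound GST-tagged yeast transcription factors, applied at about 100-200 nM to double-stranded universal all-10-mer Agilent arrays, were detected with fluorescent anti-GST. Scans were normalised with masliner. A modified Wilcoxon-Mann-Whitney statistic, the E-score, was assigned to each ungapped eight-base word pooled with its reverse complement by the Universal PBM Analysis Suite.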

Sequence	PBM E-score
CCTGATAG	-0.255
ATCGGTCC	-0.253
AGAGCTCG	-0.189
GTCTCGGA	-0.144
AGGCTTGC	-0.27
CTTCAGGA	0.0286
AGTCAAAA	0.135
CCAGCATA	0.0134
ACACTTCA	-0.0137
ACCGCCAG	-0.0151
AAGTGACG	0.45
GAAAGTAA	0.0654
ACATCGGT	-0.184
AAGAGCAA	-0.307
CCCATAGA	-0.319
CGCTAAAA	0.00907
GTGCGCAC	0.0822
AATGACAT	0.422
TAAAGTAA	0.172
ACCTCAAG	-0.113
CATTGAAC	0.0189
CTTGACCC	-0.183
AGATCAGG	-0.196
GTTCTATA	0.0397
CTTCATGC	-0.113

Sequence	PBM E-score
AGCGTCAC	0.332
GGTTTGGA	0.042
CATATTAA	0.234
ACAGCCGG	-0.00077
ACCAAGCA	-0.00668
AGTTATGC	0.045
ACCGCCTA	-0.115
ACAGCACC	-0.0342
CCATTTTC	0.2
AAGCTCGA	-0.00705
ACTGTTAC	0.0792
CAGTGAAA	0.15
ATGTCTGA	0.0205
ATGTCGTG	0.0262
AGTTATAA	0.137
CTAATTCA	0.0754
CGCATGTA	-0.0587
CGTACAAG	0.0819
AGGAGAAC	-0.157
CGTTGTAC	0.0365
ATGGAGTA	-0.0489
ATCCAGCA	-0.0228
CCGCATAC	0.103
GGTCAGCA	-0.0601
GCGTATAC	0.104

Sequence	PBM E-score
CAACGTCG	0.0638
GACGCGGA	0.0322
ATGTGCTC	-0.0603
ATCCCATG	-0.0123
ATACACTC	0.151
CTCAAGGC	-0.122
GTGAGGGA	-0.156
TAAGCACA	0.2
GTCCTCAA	0.00181
AATTCTGA	0.173
CGGGTCCC	-0.401
ATTCAAGA	-0.0345
GACGAACA	0.145
CAAAAGGA	0.076
CGCACATA	-0.12
AGAGAGCT	-0.224
CCAGGCCG	-0.0795
AGTTGGGG	-0.144
GTCCTCAC	-0.00401
CTCGTCTA	0.0081
AAGTACAC	0.126
ATAGGCCC	-0.302
AAGCAATA	0.0125
AACGGCTA	0.0973
GGCAGAAA	0.191

Sequence	PBM E-score
CGCTAGTC	-0.28
AGTTCCGC	-0.0978
ACGAGGAT	-0.0239
CTCCTTAC	0.00778
AGCGTCCT	-0.276
GTTTTTCA	0.103
ACATTAAC	0.0491
GCGGGCCC	-0.248
CCCTCTTC	-0.349
ATTCCCAA	0.0668
ACTGCTCA	0.159
GGTCCTTA	-0.0825
AGATTCCG	0.0555
GAAAACCA	0.0372
ATCGCATA	0.0497
ATGGGATA	-0.125
TGACTCAA	0.135
ATCCAAAT	0.171
GACTGTGC	-0.0662
CCCCTGCG	-0.328
CCGACCCA	-0.225
CGCCGGCA	-0.181
CAAAGGCC	-0.199
ACGGGCCA	-0.0404
GTGACAGA	0.133

Sequence	PBM E-score
ACTGAACG	-0.056
AACAGTAC	0.0118
CTTGAGGC	-0.195
ATTGTACA	0.0447
TTATGCAA	0.124
AAGTACGC	0.00352
ACGCTGGC	-0.207
CCTTTTTC	0.106
GTAGTTTA	0.171
GAATAGCA	0.0431
AGACAGTG	-0.048
AGACTTTA	-0.0284
GAAATCTA	0.173
AGCACAGA	0.0947
ATGTCTGG	-0.0099
CCTGTCGC	-0.179
AGAATTCT	0.218
AGGGAATG	-0.0251
CAAGGACG	-0.236
ACCTAACA	-0.0263
GCTGCACA	-0.165
ACTTGAGG	-0.226
GAAACGAC	0.0429
AAAAAAAC	0.171
ACCCCGTA	-0.0129

Sequence	PBM E-score
AGCCTCCC	-0.322
ATACACTA	0.119
ATGTGGCG	-0.0174
GCCCTCGC	-0.0974
GTGTATAA	-0.0913
CCCGGGCC	-0.309
CCGACTGA	-0.0992
CACACTCA	0.194
AATAGGGT	-0.00098
CCGACGCC	0.0803
AGATCGGA	0.0463
CCTGATTA	0.0379
AATTGTCC	-0.012
ACAGTACA	-0.105
ACACAAAG	0.0606
CAAGTATG	0.0553
TCGAGCGA	0.0805
CCGCACAC	-0.0493
CAAATCAA	0.239
CACGCTCC	-0.172
CAGATATA	0.2
CGAATCCG	-0.0422
ATTCGCGA	-0.0089
CCCCCCCG	-0.336
AAAAGCCT	-0.104

Sequence	PBM E-score
ATAGTCAT	0.0474
GAAGTCAA	0.119
AGCCTTTC	-0.0269
ATTCAACA	0.243
CCTTTAAC	0.0665
AATCCTTA	0.0277
AAACTCCC	-0.131
AAGATTAG	0.13
GCAGGCCC	-0.4
CTTCAACC	-0.0318
ATATGGAC	-0.0425
CCCATTCC	-0.413
ACCCAACG	-0.0538
ATCCATAC	-0.00142
GGGAGTAC	-0.226
GGGTAGAA	-0.072
ATGAAATA	0.283
TGAACTCA	0.11
GCCCTGAA	-0.00902
AATCGCTA	-0.0581
CCTAAAGC	-0.171
AATAGAAC	0.0675
CAGTTGAC	0.194
CCGCGCCA	0.123
GCGTTGAA	-0.00133

Sequence	PBM E-score
AGCGCCCG	-0.14
ACACCGTC	-0.0372
CTAGTAGA	0.064
CACGGCCC	0.182
CTTGGGAA	0.118
AACTAGAA	0.188
GTCAGGAC	-0.113
CCTAACCC	-0.411
ACGATGCT	-0.0564
ATTTTCGA	0.243
GATGTCCC	-0.3
GCCTTAGC	-0.0377
GTGGTCTA	-0.273
CGCCCGCA	-0.0119
CACGCTAA	0.00256
AGTGCCTG	-0.181
AGCATGCC	-0.0964
GGAAGTCA	-0.14
GGGGTCAA	-0.0862
AAACGAGA	0.0396
AATGCTTA	-0.00505
GCTGCCCC	-0.255
AGGCATGG	-0.071
ACCCATAA	-0.0187
CAGTTAAC	0.0423

Sequence	PBM E-score
GCCCCCTA	-0.333
AGATCGAG	-0.0213
CGTAAATA	0.27
ATTTTCCG	0.209
ATTCGTTA	0.141
AATCTTGA	0.0369
CGGACTGC	-0.0761
AATGCATG	0.204
ATTGAGCG	-0.0477
GTCGATCA	-0.00123
GCCCGGTA	-0.297
GGTTTCAA	-0.113
ACTTTCTC	0.0182
AACATAAG	0.209
CACTCAGG	-0.108
AACCCACC	0.0456
GACACCGA	0.018
AGCAGCTA	-0.0344
CCAATCGA	-0.169
